From a collection of fitness landscapes (doi:10.1016/j.celrep.2020.107928)
Whole data set: some 81,000 sequences, median “one-hybrid fitness for binding parS DNA” near -0.17, cut for the highest 2% near 0.51. This is one part of the list.

B1: Caulobacter ParB omega fusion; a variant is named by its letters at X, in order, B8GW30 (parent)
chain: MESVVVGEPGMSEGRRGLGRGLSALLGEVDAAPAQAPGEQLGGSREAPIEILQRNPDQPRRTFREEDLEDLSNSIREKGVLQPILVRPSPDTAGEYQIVAGERAWRAAQRAGLKTVPIMVRELDDLAVLEIGIIENVQRADLNVLEEALSYKVLMEKFERTQENIAQTIGKSXSHVANXMRLLXLPDEVQSYLVSGELTAXHARAIAAAADPVALAKQIIEGGLSVRETEALARKAPNLSAGKSKGGRPPRVKDTDTQALESDLSSVLGLDVSIDHRGSTGTLTITYATLEQLDDLCNRLTRGI

Variants of: B1
Test: one-hybrid fitness for binding parS DNA (scaled: cognate 1, non-cognate 0); higher = stronger binding
Conditions: with parS DNA site
How it was run: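 Fitness is the rescaled log change in variant-to-wild-type read ratio, measured by Illumina sequencing of plasmids before and after bacterial one-hybrid selection. The scale puts cognate at 1 and non-cognate at 0. Selection of Caulobacter ParB libraries, four specificity codons randomised, took place in E. coli USO with a HIS3 reporter, site 19 bp from the promoter, over 48 hours at 37°C on M9-minus-histidine with 0.1 mM IPTG and 5 mM 3-AT.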

Row | Variant | one-hybrid fitness for binding parS DNA
1 | HNME | ≤ 0.2
2 | LSHL | ≤ 0.2
3 | LALV | ≤ 0.2
4 | NNAW | ≤ 0.2
5 | RMYH | 0.234
6 | EHVA | ≤ 0.2
7 | LHGA | ≤ 0.2
8 | MGDG | ≤ 0.2
9 | GLTH | ≤ 0.2
10 | NEMI | ≤ 0.2
11 | THDN | ≤ 0.2
12 | THHW | ≤ 0.2
13 | CCMG | ≤ 0.2
14 | GKMS | ≤ 0.2
15 | KRNS | ≤ 0.2
16 | NIEL | ≤ 0.2
17 | EQCR | ≤ 0.2
18 | PSFL | ≤ 0.2
19 | IWRT | ≤ 0.2
20 | KIYF | ≤ 0.2
21 | KSMS | ≤ 0.2
22 | RMPY | 0.322
23 | TANR | ≤ 0.2
24 | TTWY | ≤ 0.2
25 | ATEC | ≤ 0.2

Row | Variant | one-hybrid fitness for binding parS DNA
26 | DGPC | ≤ 0.2
27 | YMKC | ≤ 0.2
28 | SRTF | ≤ 0.2
29 | VMLV | ≤ 0.2
30 | LTML | ≤ 0.2
31 | PVGW | ≤ 0.2
32 | REHT | ≤ 0.2
33 | TKPV | ≤ 0.2
34 | PRDE | ≤ 0.2
35 | IQRS | ≤ 0.2
36 | GPDF | ≤ 0.2
37 | PIQS | ≤ 0.2
38 | QRDG | ≤ 0.2
39 | DRGY | ≤ 0.2
40 | EHRR | ≤ 0.2
41 | QVRF | ≤ 0.2
42 | WYYS | ≤ 0.2
43 | KCTC | ≤ 0.2
44 | LLGR | ≤ 0.2
45 | TPQD | ≤ 0.2
46 | GYGM | ≤ 0.2
47 | KRDL | ≤ 0.2
48 | GSNT | ≤ 0.2
49 | CSWC | ≤ 0.2
50 | ECKT | ≤ 0.2

Row | Variant | one-hybrid fitness for binding parS DNA
51 | PGYQ | ≤ 0.2
52 | SPHM | ≤ 0.2
53 | PNIS | ≤ 0.2
54 | PPQV | ≤ 0.2
55 | EMMN | ≤ 0.2
56 | PVAP | ≤ 0.2
57 | PMFR | ≤ 0.2
58 | WILG | ≤ 0.2
59 | SWGV | ≤ 0.2
60 | RAYA | 0.602
61 | SQKG | ≤ 0.2
62 | ISVV | ≤ 0.2
63 | ESRL | ≤ 0.2
64 | AIHK | ≤ 0.2
65 | YQLR | ≤ 0.2
66 | VVCY | ≤ 0.2
67 | QVGF | ≤ 0.2
68 | ELVN | ≤ 0.2
69 | DLFC | ≤ 0.2
70 | DNRS | ≤ 0.2
71 | WVHT | 0.294
72 | WCTL | ≤ 0.2
73 | LEEM | ≤ 0.2
74 | PMGC | ≤ 0.2
75 | SLIR | ≤ 0.2

Row | Variant | one-hybrid fitness for binding parS DNA
76 | QELG | ≤ 0.2
77 | PDPT | ≤ 0.2
78 | QIAD | ≤ 0.2
79 | EIYW | ≤ 0.2
80 | DTGL | ≤ 0.2
81 | GYPC | ≤ 0.2
82 | KHDT | ≤ 0.2
83 | GQVG | ≤ 0.2
84 | AGNL | ≤ 0.2
85 | NRLT | ≤ 0.2
86 | LLQL | ≤ 0.2
87 | RTNT | 0.86
88 | LANR | ≤ 0.2
89 | PITK | ≤ 0.2
90 | QCDV | ≤ 0.2
91 | NFEL | ≤ 0.2
92 | KYMR | ≤ 0.2
93 | NAHA | ≤ 0.2
94 | IKYG | ≤ 0.2
95 | TSLY | ≤ 0.2
96 | LCRR | ≤ 0.2
97 | RFNM | 0.344
98 | RTNQ | ≤ 0.2
99 | QIKW | ≤ 0.2
100 | RPNE | ≤ 0.2

Row | Variant | one-hybrid fitness for binding parS DNA
101 | NNCW | ≤ 0.2
102 | QSMS | ≤ 0.2
103 | VHET | ≤ 0.2
104 | AVSY | ≤ 0.2
105 | YNCR | ≤ 0.2
106 | AANT | ≤ 0.2
107 | GWCS | ≤ 0.2
108 | NQAE | ≤ 0.2
109 | GYCD | ≤ 0.2
110 | RLWF | 0.255
111 | SANL | ≤ 0.2
112 | QHSG | ≤ 0.2
113 | RCAA | 0.596
114 | STRC | ≤ 0.2
115 | YWVG | ≤ 0.2
116 | RPYR | ≤ 0.2
117 | HPIL | ≤ 0.2
118 | TLEA | ≤ 0.2
119 | PVIC | ≤ 0.2
120 | SISF | ≤ 0.2
121 | VVFV | ≤ 0.2
122 | THMR | ≤ 0.2
123 | NDMC | ≤ 0.2
124 | PKKW | ≤ 0.2
125 | DPFS | ≤ 0.2

Row | Variant | one-hybrid fitness for binding parS DNA
126 | DLQR | ≤ 0.2
127 | WVAS | ≤ 0.2
128 | SSKT | ≤ 0.2
129 | VVRG | ≤ 0.2
130 | PKRL | ≤ 0.2
131 | ECTE | ≤ 0.2
132 | RSFD | ≤ 0.2
133 | PTNA | ≤ 0.2
134 | RLMT | 0.955
135 | STFT | ≤ 0.2
136 | TVVE | ≤ 0.2
137 | TYMA | ≤ 0.2
138 | VDTT | ≤ 0.2
139 | RHIG | 0.705
140 | ERMG | ≤ 0.2
141 | RSEN | 0.333
142 | YDQS | ≤ 0.2
143 | MPKR | ≤ 0.2
144 | CPND | ≤ 0.2
145 | AGHV | ≤ 0.2
146 | TAAI | ≤ 0.2
147 | PYTR | ≤ 0.2
148 | LHLL | ≤ 0.2
149 | GFDF | ≤ 0.2
150 | QQLR | ≤ 0.2

Row | Variant | one-hybrid fitness for binding parS DNA
151 | PYCS | ≤ 0.2
152 | YTLE | ≤ 0.2
153 | QAIC | ≤ 0.2
154 | TRYG | ≤ 0.2
155 | TRQS | ≤ 0.2
156 | YHTT | ≤ 0.2
157 | KIRF | ≤ 0.2
158 | QWIG | ≤ 0.2
159 | LKHT | ≤ 0.2
160 | PSKS | ≤ 0.2
161 | FVTC | ≤ 0.2
162 | WGYV | ≤ 0.2
163 | AMWG | ≤ 0.2
164 | FHRC | ≤ 0.2
165 | MLAT | ≤ 0.2
166 | SPYK | ≤ 0.2
167 | KMKA | ≤ 0.2
168 | RLTF | 0.248
169 | SQMF | ≤ 0.2
170 | SAEC | ≤ 0.2
171 | VHTV | ≤ 0.2
172 | SAFF | ≤ 0.2
173 | RYHK | ≤ 0.2
174 | ATYF | ≤ 0.2
175 | ANVG | ≤ 0.2

Row | Variant | one-hybrid fitness for binding parS DNA
176 | QGDG | ≤ 0.2
177 | SFTI | ≤ 0.2
178 | NWDR | ≤ 0.2
179 | AAML | ≤ 0.2
180 | LGSP | ≤ 0.2
181 | RQFM | 0.279
182 | LSRY | ≤ 0.2
183 | CENR | ≤ 0.2
184 | RPMI | ≤ 0.2
185 | MNDR | ≤ 0.2
186 | SRIT | ≤ 0.2
187 | RVCY | 0.462
188 | RSHP | ≤ 0.2
189 | NPWL | ≤ 0.2
190 | YRKF | ≤ 0.2
191 | AQRD | ≤ 0.2
192 | AELT | ≤ 0.2
193 | PYTK | ≤ 0.2
194 | YRFR | ≤ 0.2
195 | VLKI | ≤ 0.2
